# Some of the results follow.
# System: HSkMC (human skeletal muscle cells)
# Test: cytotoxicity call (relative viability < 0.9)
# Settings: 10 µM
row,Structure (SMILES),cytotoxicity call
1,CC(C)NC(=O)N1C[C@H]2[C@H](C(=O)N(C)Cc3ccccn3)CCS(=O)(=O)[C@H]2C1,inactive
2,CNC[C@@H]1OCCCC[C@H](C)Oc2ccc(NC(=O)Nc3ccc(C(F)(F)F)cc3)cc2C(=O)N([C@@H](C)CO)C[C@@H]1C,inactive
3,C[C@@H]1CN([C@H](C)CO)C(=O)c2cccc(NS(=O)(=O)c3ccc(F)cc3)c2O[C@H]1CN(C)S(=O)(=O)c1cn(C)cn1,inactive
4,Cc1ccc(S(=O)(=O)N(C)C[C@@H]2OCCCC[C@H](C)Oc3ccc(NS(=O)(=O)c4ccc(F)cc4)cc3C(=O)N([C@H](C)CO)C[C@H]2C)cc1,inactive
5,COc1ccc(NC(=O)N[C@@H]2CC[C@@H](CCNC(=O)CN3CCOCC3)O[C@@H]2CO)cc1,inactive
6,Cc1ccccc1OC[C@@H](O)CO,inactive
7,C[C@@H]1CN([C@@H](C)CO)C(=O)c2c(c3ccccc3n2C)-c2ccccc2CO[C@H]1CN(C)Cc1cccc(C(F)(F)F)c1,inactive
8,C[C@@H]1CN([C@H](C)CO)C(=O)c2cc(NS(=O)(=O)c3cccs3)ccc2O[C@@H](C)CCCCO[C@@H]1CN(C)C(=O)CCC(F)(F)F,inactive
9,CC(=O)N1[C@@H](CO)[C@H](c2ccccc2)[C@@H]1CNC(=O)CN1CCOCC1,inactive
10,CO[C@@H]1CN(C)C(=O)c2cc(NC(=O)Nc3cccc(Cl)c3)ccc2OC[C@@H](C)N(C(=O)Nc2c(C)noc2C)C[C@@H]1C,inactive
11,COc1ccc(CN(C)C[C@H]2Oc3ccc(NC(=O)CCCCCC(=O)Nc4ccccc4N)cc3CC(=O)N([C@@H](C)CO)C[C@@H]2C)cc1,inactive
12,CO[C@@H]1CN(C)C(=O)c2ccc(NC(=O)Nc3ccc(Cl)cc3)cc2OC[C@H](C)N(C(=O)Nc2c(C)noc2C)C[C@@H]1C,inactive
13,C[C@@H]1CCCCO[C@H](CN(C)CC2CCCCC2)[C@@H](C)CN([C@H](C)CO)C(=O)c2cc(NC(=O)CCC(F)(F)F)ccc2O1,inactive
14,COc1ccc(NC(=O)Nc2cccc3c2O[C@H](CN(C)Cc2ccc(Oc4ccccc4)cc2)[C@H](C)CN([C@H](C)CO)C3=O)cc1,inactive
15,O.O=C([O-])CC(O)(CC(=O)[O-])C(=O)[O-].[Li+].[Li+].[Li+],inactive
16,C[C@H]1CC=CC[C@H](c2ccc3c(c2)OCO3)NC(=O)[C@@H](Cc2ccccc2)N(C)C(=O)c2ccccc2O1,active
17,O=C(O)c1ccc(-c2ccccc2)cc1,inactive
18,Cc1ccc(S(=O)(=O)N(C)C[C@H]2OCCCC[C@@H](C)Oc3ccc(NS(=O)(=O)c4ccc(F)cc4)cc3C(=O)N([C@H](C)CO)C[C@H]2C)cc1,inactive
19,NC(=O)CCN1CCn2c1nc1ccccc12,inactive
20,CCNC(=O)C[C@@H]1CC[C@H](NC(=O)C2CCOCC2)[C@H](CO)O1,inactive

row,Structure (SMILES),cytotoxicity call
1,NC[C@@H]1CC(=O)N(Cc2ccccc2)C1,inactive
2,C[C@@H]1CN([C@@H](C)CO)C(=O)c2cccc(NC(=O)Nc3ccccc3)c2O[C@H]1CN(C)Cc1ccc(Oc2ccccc2)cc1,inactive
3,COc1ccc(NC(=O)Nc2ccc3c(c2)C(=O)N([C@@H](C)CO)C[C@@H](C)[C@@H](CN(C)S(=O)(=O)c2ccc(F)cc2)OCCCC[C@@H](C)O3)cc1,inactive
4,Cc1noc(C)c1S(=O)(=O)Nc1ccc2c(c1)C(=O)N([C@H](C)CO)C[C@@H](C)[C@@H](CN(C)C(=O)Nc1cccc3ccccc13)OCCCC[C@@H](C)O2,inactive
5,COC(=O)[C@@H](N)Cc1ccc(O)c(O)c1,inactive
6,COc1ccc(CN(C)C[C@@H]2Oc3ccc(NC(=O)Nc4cccc5ccccc45)cc3C(=O)N([C@H](C)CO)C[C@H]2C)cc1,inactive
7,C[C@@H]1CN([C@@H](C)CO)C(=O)c2cc(NC(=O)Nc3ccc(C(F)(F)F)cc3)ccc2O[C@@H]1CN(C)S(C)(=O)=O,inactive
8,C[C@@H]1CCCCO[C@@H](CN(C)C(=O)NC2CCCCC2)[C@H](C)CN([C@H](C)CO)C(=O)c2cc(NC(=O)Nc3cccc4ccccc34)ccc2O1,inactive
9,C[C@@H]1CN([C@H](C)CO)C(=O)CCCn2nncc2CO[C@H]1CN(C)S(=O)(=O)c1cn(C)cn1,inactive
10,CC(C)C[C@H](N)C(=O)O,inactive
11,C[C@@H]1CN([C@@H](C)CO)C(=O)c2cccc(NC(=O)Nc3cccc4ccccc34)c2O[C@H]1CN(C)S(=O)(=O)c1ccc2ncsc2c1,inactive
12,O=C(NCc1ccccn1)C1CCNCC1,inactive
13,CN(CC(=O)Nc1cccc(S(=O)(=O)N2CCOCC2)c1)CC(=O)Nc1ccc(Cl)c(C(F)(F)F)c1,inactive
14,COCC#Cc1ccc2c(c1)O[C@H](CN(C)Cc1ccccc1F)[C@@H](C)CN([C@H](C)CO)S2(=O)=O,inactive
15,C[C@H]1CCCCO[C@@H](CN(C)Cc2ccc(C(F)(F)F)cc2)[C@@H](C)CN([C@@H](C)CO)C(=O)c2cc(NS(C)(=O)=O)ccc2O1,inactive
16,C[C@@H]1CN([C@H](C)CO)S(=O)(=O)c2ccc(C#Cc3cccc(F)c3)cc2O[C@@H]1CN(C)CC1CC1,inactive
17,COc1ccc(Oc2cc(NCCC(F)(F)F)c3ncc(-c4ccc(C(=O)NC5CC5)c(C)c4)n3n2)c(F)c1F,active
18,Cc1ccccc1S(=O)(=O)N1C[C@H](O)COC[C@H]2O[C@@H](CC(=O)NCCc3ccccc3)CC[C@@H]21,inactive
19,C[C@@H]1CN([C@H](C)CO)C(=O)c2cc(NS(=O)(=O)c3ccccc3)ccc2O[C@@H]1CN(C)S(=O)(=O)c1ccc(F)cc1,inactive
20,O=C(NCc1nc2ccccc2[nH]1)C1=C[C@H](c2ccc(C(F)(F)F)cc2)C[C@H](OCc2ccc(CO)cc2)O1,inactive
